From PubChem BioAssay AID938 (National Center for Advancing Translational Sciences (NCATS), 2007)
Several values for one entry are separate records, joined by “and”; a condition that tells them apart may be missing. Identical values can stand only once. The campaign covered roughly 73,000 compounds. About 1,800 (2.5%) were called active. Inconclusive means that the source gave no clear call. Such entries were picked first, then a sample of the others. The call rests on the fitted dose curve; in most records, active means well fitted activation curve with a large enough effect; inconclusive means small, poorly fitted or top-dose-only effect; inactive means no such curve, though single readings can be large or run the other way. Potencies of inconclusive entries are left out as doubtful fits.

assay: qHTS Assay for Agonists of the Thyroid Stimulating Hormone Receptor: Activators of Intracellular cAMP Concentrations in Parental HEK 293; settings: parental HEK293 CNG cAMP sensor, membrane potential fluorescence; activation: at 57.1 µM (top of the series) unless noted; further: nearly all actives have a fitted effect of over 55% in size; on activation: % of control where 0% means no effect
Summary of the method: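 Parental HEK 293 cells stably expressing a modified CNG channel (no TSHR) report cAMP rise as membrane depolarization. Membrane potential dye with 100 uM RO 20-1724 was loaded for 60 min at room temperature, then compound added for 30 min; fluorescence read at 590 nm.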
Potency means the concentration at half of the fitted maximal effect; tags describe the fitted curve by direction and shape.

Structure (SMILES) | Potency | activation
Cc1c(C(=O)NCCc2ccccc2)oc2ccc(S(=O)(=O)N3CCC4(CC3)OCCO4)cc12 | inconclusive [activator, partial curve] | –
Cc1cc(CC(C)C)n(-c2nc3ccccc3c(=O)n2OCC(N)=O)n1 | inconclusive [activator, single point] | –
CCCCCn1c(SCCc2ccccc2)nc2c1c(=O)[nH]c(=O)n2C | – | inactive: 19.2%
CCc1nc(N)c(C#N)c(-c2cccnc2)c1C | inconclusive [activator, single point] | –
O=C(O)/C=C\c1ccc(O)c(O)c1 | inconclusive [activator, single point] | –
CCOC(=O)N1CCN(c2c(N3CCN(c4ccccc4OC)CC3)c(=O)c2=O)CC1 | – | inactive: 4.28%
Cc1cccc(N(C)c2cc(C)nc3ncnn23)c1 | inconclusive [activator, single point] | –
COC(=O)C1CCN(C(=O)c2ccccc2Oc2ccccc2)CC1 | inconclusive [activator, partial curve] | –
CCOC(=O)C1C(=O)CC(C)(O)C(C(=O)OCC)C1c1cccc(OC)c1 (stereo unspecified) | inconclusive [activator, single point] | –
COc1ccc(C2C(C(=O)Nc3cc(C)on3)c3ccccc3C(=O)N2C)cc1 (stereo unspecified) | inconclusive [activator, single point] | –
Cc1cccc(-c2nc(CSCC(=O)N3CCN(Cc4ccc5c(c4)OCO5)CC3)c(C)o2)c1 | inconclusive [activator, single point] | –
COC(=O)CNc1nc(C2CC2)nc2c1nnn2Cc1ccccc1Cl | – | inactive: 28.5%
COc1ccc2c(c1)Cc1sc(NC(=O)c3cccs3)nc1-2 | – | inactive: -22.2%
CCCCCCn1c(C(C)NC(=O)c2ccco2)nc2ccccc21 (stereo unspecified) | inconclusive [activator, partial curve] | –
COc1ncc2ncc(=O)n(Cc3ccc(F)cc3)c2n1 | inconclusive [activator, single point] | –
O=C(O)CSCC(=O)Nc1cccc2ccccc12 | inconclusive [activator, single point] | –
O=C(CCCN1C(=O)CSc2ncccc21)N1CCN(c2cccc(C(F)(F)F)c2)CC1 | inconclusive [activator, single point] | –
Cc1c(/N=C/c2ccco2)n(Cc2ccccc2)c2ccccc12 | inconclusive [activator, partial curve] | –
O=C(O)CC1(C(=O)O)CCCCC1 | – | inactive: -1.8% [at 11.4 µM]
CCOC(=O)CNC(=O)Nc1nnc(-c2ccc(OCC)cc2)o1 | inconclusive [activator, single point] | –
CCCCOC(=O)n1c(SCC(=O)N(CC)CC)nc2ccccc21 | inconclusive [activator, partial curve] | –
Clc1ccc(C2CC(c3ccccc3)Nc3ncnn32)cc1 (stereo unspecified) | inconclusive [activator, single point] | –
CCOC(=O)c1sc(NC(=O)CSc2nnc(C)s2)c(C(=O)OCC)c1C | active: 12.6 µM | –
Cc1cccc(N2CCN(C(=O)c3cc4c(C)nc5ccccc5c4o3)CC2)c1C | inconclusive [activator, partial curve] | –

Structure (SMILES) | Potency | activation
Cc1ccc2c(c1)-c1cc(C)nn1C(c1sccc1C)N2 (stereo unspecified) | inconclusive [activator, single point] | –
O=S(=O)(NCCN1CCCC1)c1cccc2cccnc12 | inconclusive [activator, single point] | –
CCCCP(=O)(CCCC)Cc1ccccc1O | inconclusive [activator, partial curve] | –
COc1cccc(NC(=O)c2ccccc2-c2nc(-c3cccc(C)c3)no2)c1 | active: 15.8 µM | –
Cc1sc2nc3ccc(N4CCCCC4)nn3c(=O)c2c1C | inconclusive [activator, single point] | –
CC1Cc2ccccc2N1S(=O)(=O)c1cccc(C(=O)c2nccn2C)c1 (stereo unspecified) | inconclusive [activator, single point] | –
CN1CCN(CC(=O)n2c3c(c4ccccc42)CCCC3)CC1 | inconclusive [activator, single point] | –
COc1ccc(OC)c(-c2csc(N(Cc3ccco3)C(=O)c3cccs3)n2)c1 | inconclusive [activator, partial curve] | –
COc1ccc(-c2cc(C(F)(F)F)n3nc(C(=O)Nc4cc(C)on4)cc3n2)cc1OC | – | inactive: 2.85%
Cc1ccc(NC(=O)CN2CC(C)SC2=NC2CCCCC2)cc1 (stereo unspecified) | – | inactive: 15.4%
Cc1ccc(S(=O)(=O)N2CCCC2C(=O)Nc2nccs2)cc1 (stereo unspecified) | inconclusive [activator, single point] | –
Cc1onc(-c2c(Cl)cccc2Cl)c1C(=O)NCCN1CCOCC1 | inconclusive [activator, single point] | –
O=C(c1ccc(C#Cc2ccccc2)o1)N1CCN(c2ccccn2)CC1 | inconclusive [activator, single point] | –
COc1cccc(-c2nc(N(C)Cc3ccco3)c3ccccc3n2)c1 | inconclusive [activator, partial curve] | –
COc1cccc(/C=C/C2=CC3(C)CC2(C)C(c2cccc(OC)c2)CC3=O)c1 (stereo unspecified) | – | inactive: 11.4% [at 11.4 µM]
CCN(CC)S(=O)(=O)c1csc(C(=O)NC2CCCCC2)c1 | inconclusive [activator, full curve, poor fit] | –
Cc1cc(NC(=O)c2ccccc2NS(=O)(=O)c2c(C)c(C)cc(C)c2C)no1 | active: 31.6 µM | –
Cc1ccc(-c2cc(C)nc3ncnn23)cc1 | inconclusive [activator, single point] | –
CSc1nc(C)c2c(n1)OC(CN1C(=O)c3ccccc3C1=O)C2 (stereo unspecified) | – | inactive: 4.14%
CCCCCCCC1=Cc2ccccc2C(CC(C)=O)N1C(=O)OC (stereo unspecified) | inconclusive [activator, single point] | –
Cn1c(/C(C#N)=C(\O)CN2CCN(Cc3ccccc3)CC2)nc2ccccc21 | active: 31.6 µM | –
C/C(CCN1CCCc2nc(C)c(C)cc21)=N\O[C@@H](C)c1cn([C@H](CO)Cc2ccccc2)nn1 | – | inactive: 6.18% [at 11.4 µM] and inactive: 1.13% [at 11.4 µM]
COC(=O)C1CCN(c2nc3ccccc3nc2C(C#N)C(=O)OCC(C)C)CC1 (stereo unspecified) | inconclusive [activator, partial curve] | –
Cc1nc2nc(COc3ccccc3)nn2c(C)c1Cl | – | inactive: 10.9%

Structure (SMILES) | Potency | activation
COc1ccc(OCCSc2nnc3sc4ccccc4n23)cc1 | – | inactive: 21.8%
O=S(=O)(c1ccccc1)N1CCC2(CCCN(c3ccncc3)C2)CC1 | active: 20 µM | –
CC1CCN(C(=O)CSc2nnc(Cc3ccccc3)o2)CC1 | inconclusive [activator, single point] | –
COC(=O)c1[nH]c2cccc(Cl)c2c1NC(=O)CN1CCCCC1C (stereo unspecified) | inconclusive [activator, single point] | –
O=C1CC(C(=O)Nc2ccc(Br)cc2)C2(CCCC2)O1 (stereo unspecified) | – | inactive: -5.37%
C[C@H]1CC(C)(C)C[C@@](OCCN2CCCCC2)(c2ccccc2)C1 | active: 5.01 µM | –
O=c1c(-c2ccc(F)cc2)nc2cnc(Oc3ccccc3)nc2n1Cc1cccs1 | – | inactive: 18.6%
COc1ccccc1CNc1ccnc(-c2ccccc2OC)n1 | inconclusive [activator, single point] | –
Cn1c(=O)c2c(nc(CN3CCCCC3)n2CCCc2ccccc2)n(C)c1=O | inconclusive [activator, partial curve] | –
COc1ccc(/C=N/n2c(SC)nnc2-c2ccccc2)cc1C | active: 25.1 µM | –
COc1ccc(N2CCN(C(c3cccc(OC)c3OC)c3nnnn3C3CCCC3)CC2)cc1 (stereo unspecified) | inconclusive [activator, full curve] | –
O=C(C(Cc1ccccc1)N1C(=O)C2C3C=CC(C3)C2C1=O)N1CCCCC1 (stereo unspecified) | inconclusive [activator, single point] | –
CC(C)CNC(=O)O | – | inactive: -0.46% [at 11.4 µM]
COc1ccc(NC(=O)COc2ccccc2C#N)c(S(=O)(=O)N2CCCCC2)c1 | inconclusive [activator, single point] | –
Cc1ccc(-c2noc(C3CCCN(C(=O)c4ccc(F)cc4F)C3)n2)cc1 (stereo unspecified) | inconclusive [activator, partial curve] | –
COc1ccc(C)cc1NC(=O)CSc1nnc(COc2ccc(C)cc2)n1Cc1ccco1 | inconclusive [activator, partial curve] | –
COc1ccc(C(=O)N2CCC[C@@]3(CCN(Cc4ccccc4)C3)C2)cc1 | inconclusive [activator, full curve] | –
CC(C)(C)N1C(=O)[C@H]2[C@H]3[C@H](O)[C@H](O)C/C(=N/NC(=O)OCc4ccccc4)[C@@H]3CC[C@@H]2C1=O | inconclusive [activator, single point] | –
O=C(O)CCN1C(=S)CSC1=S | – | inactive: 8.34% [at 11.4 µM]
CCCCc1c(C)c2ccc(OC)c(/C(C)=N\O)c2oc1=O | inconclusive [activator, partial curve] | –
O=C1c2ccccc2NC2CCCCC12 (stereo unspecified) | active: 5.01 µM | –
Oc1c(CN2CCCCC2)cc(COCc2ccccc2)c2cccnc12 | – | inactive: 5.33%
CCOC(=O)c1oc2ccccc2c1CN1CCN(c2ccccc2)CC1 | inconclusive [activator, partial curve] | –
